Patent US20220267402A1 (SERPENTIDE, published 2022)

target: human GLP1 receptor (on HEK293-CNG-HuGLP1R stable cells) (human, UniProt P43220 24-463); experiment: cell-based or functional assay

Binder | EC50, cAMP bioassay on HEK293-CNG-HuGLP1R cells (after Factor Xa predigestion) [nM]
p10: hGLP1R ECD(R108G)-3xG4S-RR-Trulicity (lot#U2243DL140-19/P9EA001) (Fc fusion) RPQGATVSLWETVQKWREYRRQCQRSLTEDPPPATDLFCNRTFDEYACWPDGEPGSFVNVSCPWYLPWASSVPQGHVYRFCTAEGLWLQKDNSSLPWRDLSECEESKGGERSSPEEGGGGSGGGGSGGGGSRRHGEGTFTSDVSSYLEEQAAKEFIAWLVKGGGGGGGSGGGGSGGGGSA[omitted - human IgG4 Fc with S228P F234A L235A (EU numbers)] | 120
p11: hGLP1R ECD(R108G)-3xG4S-RKR-Trulicity (lot#U2243DL14024/P9EA001) (Fc fusion) RPQGATVSLWETVQKWREYRRQCQRSLTEDPPPATDLFCNRTFDEYACWPDGEPGSFVNVSCPWYLPWASSVPQGHVYRFCTAEGLWLQKDNSSLPWRDLSECEESKGGERSSPEEGGGGSGGGGSGGGGSRKRHGEGTFTSDVSSYLEEQAAKEFIAWLVKGGGGGGGSGGGGSGGGGSA[omitted - human IgG4 Fc with S228P F234A L235A (EU numbers)] | 26.9
pTG3: hGLP1R ECD-3xG4S-RKRR-Trulicity (lot#U5585DH140S05/P90011809) (Fc fusion) RPQGATVSLWETVQKWREYRRQCQRSLTEDPPPATDLFCNRTFDEYACWPDGEPGSFVNVSCPWYLPWASSVPQGHVYRFCTAEGLWLQKDNSSLPWRDLSECEESKRGERSSPEEGGGGSGGGGSGGGGSRKRRHGEGTFTSDVSSYLEEQAAKEFIAWLVKGGGGGGGSGGGGSGGGGSA[omitted - human IgG4 Fc with S228P F234A L235A (EU numbers)] | 617
p7: hGLP1R ECD(R108G)-3xG4S-RGER-Trulicity (lot#U2243DL140-4/P9EA001) (Fc fusion) RPQGATVSLWETVQKWREYRRQCQRSLTEDPPPATDLFCNRTFDEYACWPDGEPGSFVNVSCPWYLPWASSVPQGHVYRFCTAEGLWLQKDNSSLPWRDLSECEESKGGERSSPEEGGGGSGGGGSGGGGSRGERHGEGTFTSDVSSYLEEQAAKEFIAWLVKGGGGGGGSGGGGSGGGGSA[omitted - human IgG4 Fc with S228P F234A L235A (EU numbers)] | 25
